The target of test [1] is T1, hPD-L1(ECD)-Fc (human, UniProt Q9NZQ7 fragment).
T1 construct: extracellular domain; also called antigen protein hPD-L1(ECD)-Fc; not shown: Fc
The experiment in a line: BLI (ForteBio Octet), Protein A probe. (In general: In BLI a coated tip is dipped into the sample, and binding shifts an interference pattern.)

In test [2] the target is T2, PD-L1 expressed on the cell surface (HEK293F transiently transfected; A375/PD-L1 stably transfected cells) (UniProt Q9NZQ7).
T2 construct: whole, on cells; also called PD-L1 stably transfected cells A375
The experiment in a line: flow cytometry, competition with hPD-1(ECD)-Fc-Biotin on A375/PD-L1 cells. (In general: A flow cytometer gives signals particle by particle.)

In patent US20210261667A1 (SHANGHAI NOVAMAB BIOPHARMACEUTICALS, published 2021) one finds Kd and IC50 data, which are given here for one molecule.

hPD-L1(ECD)-Fc, sequence (Q9NZQ7 19-238): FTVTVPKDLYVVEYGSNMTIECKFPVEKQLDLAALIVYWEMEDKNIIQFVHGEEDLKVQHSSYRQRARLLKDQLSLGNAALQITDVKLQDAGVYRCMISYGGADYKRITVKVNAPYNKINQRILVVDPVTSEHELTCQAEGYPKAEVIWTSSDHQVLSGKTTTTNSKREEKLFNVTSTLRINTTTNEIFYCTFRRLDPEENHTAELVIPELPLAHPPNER

B1: humanized tetravalent anti-PD-L1 single-domain antibody (Fc fusion)
chain: QVQLQESGGGLVQPGGSLRLSCTASGYNLSPSCMGWFRQAPGKGLEGVAFTDADGSTRYADSVKARFTISRDNSKNTLYLQMNSLRAEDTAVYYCAADFFSYCSVVFRASARDKYRGQGTLVTVSSGGGSGGGSQVQLQESGGGLVQPGGSLRLSCTASGYNLSPSCMGWFRQAPGKGLEGVAFTDADGSTRYADSVKARFTISRDNSKNTLYLQMNSLRAEDTAVYYCAADFFSYCSVVFRASARDKYRGQGTLVTVSS[gap - human IgG1 Fc with changes]
notes: two chains joined by disulfide bonds between the Fc fragments; also called humanized tetravalent PD-L1 single-domain antibody; humanized tetravalent single-domain antibody
As a reminder, the Kd is the constant that tells how readily two partners part at equilibrium. High values mean weaker binding, low ones tighter binding. In general, IC50 refers to the concentration at which inhibition is half-maximal. Higher therefore signals lower potency. Consider B1, for which the Kd in test [1] was found to be 7.03 nM. In addition, the IC50 in test [2] worked out at 0.65 µg/mL.
